# Data reported in PubChem BioAssay AID504332 (National Center for Advancing Translational Sciences (NCATS), 2011).
# Hit rate of the full screen: of about 350,000 compounds, about 31,000 (8.9%) were called active. The shares of active, inactive and inconclusive entries below differ from those in the screen. Calls follow the shape of the dose curve; as a rule, active = well fitted inhibition curve with a large enough effect; inconclusive = small, poorly fitted or top-dose-only effect; inactive = no such curve, though single readings can be large or run the other way. Potencies of inconclusive entries are doubtful fits and often do not repeat.
# Molecular target: Histone-lysine N-methyltransferase EHMT2 (Homo sapiens) (UniProt Q96KQ7)
# Assay: qHTS Assay for Inhibitors of Histone Lysine Methyltransferase G9a; also: nearly all actives have a fitted effect of over 75% in size
# Conditions: G9a H3K9 monomethylation, AlphaScreen, 2 h; activity, negative = inhibition: at 59 µM (top of the series) unless noted
# Outline: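 Using a bead-based AlphaScreen, monomethylated H3K9 product from 2 h room-temperature reactions (G9a 20 nM, peptide 500 nM, SAM 20 uM) was detected with 0.5 ug/mL rabbit anti-H3K9me1 antibody.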
# % is scaled to controls: 0 for no effect and ±100 for the full control effect; potency is read from the fitted curve at half-maximal effect; tags tell the direction and shape of the fitted curve.
# UniProt Q96KQ7, sequence (Q96KQ7 whole entry, looked up): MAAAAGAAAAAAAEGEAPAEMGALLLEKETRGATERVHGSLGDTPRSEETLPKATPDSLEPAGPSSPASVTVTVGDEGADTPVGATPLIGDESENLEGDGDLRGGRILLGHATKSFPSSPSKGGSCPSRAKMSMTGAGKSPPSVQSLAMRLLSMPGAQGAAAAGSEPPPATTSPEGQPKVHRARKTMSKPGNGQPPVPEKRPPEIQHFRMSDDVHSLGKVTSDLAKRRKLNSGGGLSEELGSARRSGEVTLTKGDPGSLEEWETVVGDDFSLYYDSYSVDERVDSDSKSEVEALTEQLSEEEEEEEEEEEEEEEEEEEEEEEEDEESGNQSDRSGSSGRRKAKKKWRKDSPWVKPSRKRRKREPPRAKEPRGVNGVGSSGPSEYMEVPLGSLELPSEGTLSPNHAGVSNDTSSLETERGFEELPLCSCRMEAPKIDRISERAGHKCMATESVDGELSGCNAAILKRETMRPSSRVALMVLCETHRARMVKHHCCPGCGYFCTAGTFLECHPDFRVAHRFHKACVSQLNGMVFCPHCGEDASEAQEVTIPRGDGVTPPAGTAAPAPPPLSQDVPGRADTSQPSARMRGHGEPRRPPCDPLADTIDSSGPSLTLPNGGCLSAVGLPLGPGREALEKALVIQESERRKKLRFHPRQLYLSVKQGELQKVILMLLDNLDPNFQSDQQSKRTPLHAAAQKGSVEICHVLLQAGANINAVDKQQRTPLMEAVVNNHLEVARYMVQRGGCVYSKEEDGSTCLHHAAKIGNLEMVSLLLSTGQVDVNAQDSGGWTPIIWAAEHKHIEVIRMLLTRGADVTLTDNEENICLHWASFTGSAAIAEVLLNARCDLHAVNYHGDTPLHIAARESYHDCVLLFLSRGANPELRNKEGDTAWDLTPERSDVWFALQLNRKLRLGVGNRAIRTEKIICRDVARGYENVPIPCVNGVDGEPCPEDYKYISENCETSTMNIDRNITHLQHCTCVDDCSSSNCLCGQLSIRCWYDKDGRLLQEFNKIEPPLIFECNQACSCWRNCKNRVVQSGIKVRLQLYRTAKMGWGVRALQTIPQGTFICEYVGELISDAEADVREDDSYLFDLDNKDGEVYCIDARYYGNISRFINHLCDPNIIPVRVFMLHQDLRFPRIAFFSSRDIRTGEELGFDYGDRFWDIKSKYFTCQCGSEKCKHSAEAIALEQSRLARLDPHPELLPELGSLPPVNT
Structure (SMILES),Potency,"activity, negative = inhibition"
CCOC(=O)c1cc2occc2n1CC(=O)N1CCN(C(=O)c2ccco2)CC1,"inconclusive: 79.4 µM [inhibitor, single point]",–
O=C(/C=C/c1ccc2c(c1)OCCO2)c1ccc(O)cc1,"inconclusive: 44.7 µM [inhibitor, partial curve, poor fit]",–
COC(=O)c1sccc1NC(=S)N1CCCCC1C (stereo unspecified),"inconclusive: 1.58 µM [inhibitor, full curve, poor fit]",–
N#Cc1ccc(CN(c2ccncc2)S(=O)(=O)c2ccccc2)cc1,–,inactive: -24.7% [at 102 µM]
O=C(/C=C/c1ccco1)NC(=S)Nc1cc(C(F)(F)F)ccc1N1CCOCC1,–,inactive: -17.2%
CCCCn1c(=O)[nH]c(=O)c2c1nc(-c1cc(Cl)c(OC)c(OC)c1)n2C,"inconclusive: 79.4 µM [inhibitor, single point]",–
COc1ccc(-n2c(CNC(=O)COc3ccccc3)n[nH]c2=S)cc1,"inconclusive: 7.94 µM [inhibitor, partial curve, poor fit]",–
N#CC1=C(N)Nc2ncnn2C1c1ccccc1 (stereo unspecified),–,inactive: 21.8%
COc1ccc(NC(=S)NNC(=O)Cn2nc(C(F)F)cc2C(F)F)cc1,"inconclusive: 31.6 µM [inhibitor, single point]",–
Clc1ccc(CSc2nnc([C@@H]3CCCN3)o2)cc1Cl,"inconclusive: 89.1 µM [inhibitor, single point]",–
CCOc1ccc(NC(C)c2cc(Cl)ccc2O)cc1 (stereo unspecified),active: 39.8 µM,–
CC1CCN(C2=NC(=O)/C(=C/c3ccccc3F)S2)CC1,–,inactive: 17.2% [at 102 µM]
Cc1ccc(S(=O)(=O)N2CCCCC2)cc1C(=O)N1CCN(CCO)CC1,active: 11.2 µM,–
Oc1cccc(C(=S)N2CCCCC2)c1,active: 31.6 µM,–
COc1ccccc1OCc1ccc(C(=O)N2CCN(C(=O)c3ccco3)CC2)cc1,active: 44.7 µM,–
Cc1cccc(NC(=O)CN2C(=O)N/C(=C/c3ccc(C)s3)C2=O)c1,–,inactive: 2.24% [at 102 µM]
CCCCC(c1nnnn1CCOC)N1CCN(Cc2ccccc2)CC1 (stereo unspecified),"inconclusive: 31.6 µM [inhibitor, single point]",–
COc1ccc(C(=O)/C=C/Nc2ccc([N+](=O)[O-])cc2C)cc1OC,–,inactive: -8.62%
Cc1ccccc1NC(=O)CSc1nc2c(oc3ccccc32)c(=O)n1-c1ccccc1F,–,inactive: -9.82%
Cc1cc(C)nc(SCc2ccc(C(=O)N/N=C/c3ccco3)cc2)n1,active: 39.8 µM,–
O=S(CC(O)COCc1ccc(Cl)cc1)c1ccccn1 (stereo unspecified),"inconclusive: 22.4 µM [inhibitor, single point]",–
CC(C)(C)NC(=O)COC(=O)c1ccccc1Oc1ccccc1,"inconclusive: 0.316 µM [inhibitor, partial curve, poor fit]",–
CCCCCc1ccc(S(=O)(=O)NCCc2ccncc2)cc1,"inconclusive: 89.1 µM [inhibitor, single point]",–
Cn1ccnc1C(O)c1ccc(OCc2ccccc2)cc1 (stereo unspecified),"inconclusive: 5.01 µM [inhibitor, single point]",–

Structure (SMILES),Potency,"activity, negative = inhibition"
CCOc1cc(/C=C2\N=C3CCCCCN3C2=O)ccc1O,"inconclusive: 50.1 µM [inhibitor, partial curve, poor fit]",–
CCCNc1c(NS(=O)(=O)c2c(F)c(F)c(F)c(F)c2F)c(=O)oc2ccccc12,–,inactive: 6.89% [at 102 µM]
CC(=O)c1sc(NC(=O)COc2ccc(Br)cc2)nc1C,"inconclusive: 50.1 µM [inhibitor, partial curve]",–
COc1ccc2[nH]c3c(c2c1)CCN1C(=O)N([C@@H](C)C(=O)NC2CCCC2)C(=O)[C@]31C,"inconclusive: 89.1 µM [inhibitor, single point]",–
COCCNC(=O)c1cc(Sc2ccc(F)cc2F)nc2ccccc12,"inconclusive: 39.8 µM [inhibitor, single point]",–
CSc1nc2c(cc1C#N)CCC2,"inconclusive: 89.1 µM [inhibitor, single point]",–
CCc1ccc(S(=O)(=O)c2nnn3c2nc(NC2CCCC2)c2sccc23)cc1,–,inactive: -4.95%
COc1cc(OC)c(NC(=O)Nc2ccccc2OCc2cc(=O)n3cc(C)ccc3n2)cc1Cl,"inconclusive: 39.8 µM [inhibitor, single point]",–
CCOC(=O)CSC1=NC(=O)/C(=C/c2ccc(Br)cc2)S1,active: 39.8 µM,–
COC(=O)c1ccc(Cn2nc(C(F)(F)F)cc2C)cc1,–,inactive: 84.9% [at 102 µM]
CC(C)C(=O)N1c2ccccc2NC2=C(C(=O)CCC2)C1c1ccc(N(C)C)cc1 (stereo unspecified),"inconclusive: 35.5 µM [inhibitor, partial curve, poor fit]",–
Cc1cccc(CN2CCN(CC(=O)O)C2=O)c1,"inconclusive: 56.2 µM [inhibitor, partial curve, poor fit]",–
Cc1nccn1CCN(C)Cc1cn(Cc2ccccc2)nc1-c1ccc2c(c1)OCO2,"inconclusive: 44.7 µM [inhibitor, partial curve]",–
COc1ccc2nc(SCC(=O)Nc3ccc(S(=O)(=O)N4CCCC4)cc3)c(C#N)cc2c1,"inconclusive: 1.78 µM [inhibitor, single point]",–
S=c1[nH]nc(-c2cccnc2)n1/N=C/c1ccccc1,active: 3.98 µM,–
S=c1[nH]nc(C2CCCCC2)n1/N=C/C=C/c1ccccc1,active: 10 µM,–
CN1C(=O)/C(=C2\SC(N)=NC2=O)c2ccccc21,"inconclusive: 12.6 µM [inhibitor, partial curve, poor fit]",–
COc1ccc(CCC(=O)N(c2nnc(-c3cccnc3)s2)C(C)C)cc1,"inconclusive: 70.8 µM [inhibitor, single point]",–
CCOC(=O)c1oc2c(CN3CCN(CCO)CC3)c(O)c(CC)cc2c(=O)c1-c1nc2ccccc2s1,active: 17.8 µM,–
CCOC(=O)/C(C#N)=C/c1ccc(N2CCCCC2)cc1,–,inactive: 442% [at 102 µM]
COc1ccc(NC(=O)CN(C)S(=O)(=O)c2ccc3[nH]c4c(c3c2)CCCC4)cc1Cl,"inconclusive: 10 µM [inhibitor, partial curve]",–
CC1CCCC(N2CCN(C(=O)c3ccc([N+](=O)[O-])cc3)CC2)C1 (stereo unspecified),active: 22.4 µM,–
O=C(CN1CCN(c2ccc(O)cc2)CC1)N1CCc2ccccc21,active: 10 µM,–
CCN1CCN(c2nc(N(C)c3ccccc3)nc(N)c2[N+](=O)[O-])CC1,"inconclusive: 89.1 µM [inhibitor, partial curve, poor fit]",–

Structure (SMILES),Potency,"activity, negative = inhibition"
COc1ccc2ccccc2c1C1CC(=O)N2CN(C)CSC2=C1C#N (stereo unspecified),active: 1.58 µM,–
O=C(CCN1CCc2ccccc2C(c2ccccc2)C1)c1ccc2c(c1)OCCO2 (stereo unspecified),"inconclusive: 1.78 µM [inhibitor, partial curve, poor fit]",–
O=C(NCCc1ccccc1)C1CCCN(S(=O)(=O)c2cccnc2)C1 (stereo unspecified),–,inconclusive: -52.9% [inhibitor] [at 102 µM]
Cc1ccc2cc(C3CC(c4cccs4)=NN3S(C)(=O)=O)c(Cl)nc2c1 (stereo unspecified),–,inactive: 1.54% [at 102 µM]
O=C1Nc2ccc(F)cc2C12Nc1ccccc1-c1nnc(SCc3ccccc3F)nc1O2 (stereo unspecified),–,inconclusive: -61.2% [inhibitor]
Cc1c(NC(=O)c2ccc(F)cc2)c(=O)n(-c2ccccc2)n1C,"inconclusive: 89.1 µM [inhibitor, partial curve, poor fit]",–
COc1ccc(CNC(=O)c2cccc(NC(=O)N3CCSc4ncccc43)c2)cc1,"inconclusive: 5.01 µM [inhibitor, partial curve, poor fit]",–
CCOc1ccc(C(=O)c2cnc3ccccc3c2N2CCN(CC)CC2)cc1,"inconclusive: 0.631 µM [inhibitor, full curve, poor fit]",–
Cc1ccc(-n2c(C)cc(=O)cc2C)cc1[N+](=O)[O-],"inconclusive: 0.794 µM [inhibitor, full curve, poor fit]",–
O=C(NCCc1nc2ccccc2[nH]1)/C(=C/c1ccco1)NC(=O)c1ccccc1Br,"inconclusive: 79.4 µM [inhibitor, single point]",–
COc1ccc(CNc2ncc(-c3ccccc3)n2C)c(OC)c1OC,active: 7.08 µM,–
CC(NCc1ccco1)C(=O)N1CCc2ccccc2C1 (stereo unspecified),"inconclusive: 3.55 µM [inhibitor, single point]",–
COc1ccc(N(CC(=O)NCC2CCCO2)C(=O)CCC(=O)Nc2cc(C)on2)cc1OC (stereo unspecified),–,inactive: 47.7% [at 102 µM]
Cc1ccc(NC(=O)CC2Nc3cccc4cccc(c34)NC2=O)cc1 (stereo unspecified),"inconclusive: 6.31 µM [inhibitor, partial curve]",–
CC(C)Cn1c(-c2csc(C(C)C)c2)n[nH]c1=S,active: 5.01 µM,–
COc1ccc(OCC(=O)NC(=S)Nc2ccc3c4c(cccc24)CC3)cc1,–,inactive: -1.97% [at 102 µM]
CCOC(=O)c1ccccc1NC(=S)N1CCN(C2CCCCC2)CC1,"inconclusive: 56.2 µM [inhibitor, partial curve, poor fit]",–
Cc1nc(NCCc2ccc(S(N)(=O)=O)cc2)c2c(C)c(C)sc2n1,–,inconclusive: -75.6% [inhibitor]
COc1cccc(/C=N/N2C(=O)CSC2=S)c1O,active: 8.91 µM,–
Cn1c(=O)oc2cc(S(=O)(=O)N3CCCC(C(=O)Nc4ccc5c(c4)OCCO5)C3)ccc21 (stereo unspecified),"inconclusive: 89.1 µM [inhibitor, single point]",–
Cc1nc2ccc([N+](=O)[O-])cc2[nH]1,"inconclusive: 89.1 µM [inhibitor, partial curve, poor fit]",–
COc1ccc(C2C=C(C34CC5CC(CC(C5)C3)C4)NC(=S)N2)cc1OC (stereo unspecified),"inconclusive: 25.1 µM [inhibitor, single point]",–
CCOC(=O)c1c(NC(=S)Nc2ccccc2)sc2c1CC(C)(C)SC2,active: 39.8 µM,–
